Test results taken from patent US20050181998A1 (APPLIED RESEARCH SYSTEMS ARS HOLDING N.V., priority 2001, published 2005).

Conditions: human plasma and rat brain homogenate, 37° C.
Protocol: The peptides of the invention were prepared as a 1 μg/μl solution in water.
20 μl of the peptide solution was diluted in 80 μl of fresh human plasma or 80 μl of 10% rat brain homogenate. The solution was incubated at 37° C. for different time periods and the reaction was stopped by adding a complete <> of protease inhibitors. The bulk of the plasma proteins (none of the peptide) were precipitated in cold methanol (mix/MeOH, ⅘, v/v) for one hour at −20° C. The precipitated proteins were pelleted by centrifugation (10,000 rpm, 10 min, 4° C.). The supernatant, containing the peptide, was concentrated 5 times under vacuum and separated by reverse-phase HPLC. The peak area corresponding to the intact peptide was measured and compared with an equivalent sample incubated without plasma.

Compound	stability (peptide degradation)
CC(=O)N1CCC[C@H]1C(=O)N[C@@H](C)C(=O)N[C@@H](C)C(=O)NCC(N)=O [Ac-PAAG-Am, Ac-PAAG-NH2] (Ac-PAAG-NH2)	dramatically increased
C[C@H](NC(=O)[C@H](C)NC(=O)[C@@H]1CCCN1)C(=O)NCC(=O)O [PAAG] (H-PAAG-OH)	short stability
C[C@@H](NC(=O)[C@@H](C)NC(=O)[C@H]1CCCN1)C(=O)NCC(=O)O [paag] (H-[dP][dA][dA]G-OH)	dramatically increased

Where a SMILES comes first, the peptide text is derived from it. [ ]: non-standard residue; d: D form.
